{"source": "the RNAGym collection of RNA variant scans (doi:10.7554/elife.90254)", "parents": {"B1": {"name": "OR4K15 (parent)", "chain": "GUUAACGGUCAUAGGCCAUGGAAACUAGGAGCACCAUUUCGCUGCCAGUGAAGAAAUGAACAAAGAAAAUCUGGGCCAGGCAGGCAUCAAAAGAAAUAGUCUUGCGCUCAACCAGAAAGUCUGUAAUCAUUUUAAGGGUA"}}, "note": "The source gives no read counts; variants with many changes may rest on few reads."}
{"variants_of": "B1", "test": "self-cleavage, relative activity (ratio to wild type); higher = more cleavage; in vitro, sequencing; the parent is a self-cleaving ribozyme"}
{"variant": "GUUAACGGUCAUAGGCCAUGGAAACUAGGAGCACCACUUCGCUGCCAGCGAAGAGAUGAACAAAGAAAAUCUGGGCCAGGCAGGCAUCAAAAGAAAUAGUCUUGCGCUCAACCAGAAAGUCUGUAAUCGUUUUAAGGGUA", "note": "[U37C U49C A55G A129G]", "self-cleavage": 1.05}
{"variant": "GUUAACGGUCAUAGGCCAUGGAAACUAGGAGCACCACUUCACUGCCAGAGAAGAAAUGAACAAAGAAAAUCUGGGCCAGGCAGGCAUCAAAAGAAAUAGUCUCGCGCUCAACCAGAAAGUCUGUAAUCAUUUUAAGGGUU", "note": "[U37C G41A U49A U103C A140U]", "self-cleavage": 0.97}
{"variant": "GUUAACGGUCAUAGGCCAUGGAAACUAGGAGCACCACCUCGCUGCCAGUGAAGAAAUGAACAAAGAAAAUCUGAGCCAGGCAGGCAUCAAAAGAAAUAGUCUUGCGCUCAACCAGAAAGUCUGUAAUCAUUUUAAGGGUA", "note": "[U37C U38C G74A]", "self-cleavage": 0.32}
{"variant": "GUUAACGGUCAUAGGCCAUGGAAACUAGGAGCACCACCUCGCUGCCAGUGAAGAACAGAACAAAGAAAAUCUGGGCCAGGCAGGCAUCAAAAGAAAUAGUCUUGCGCUCAACCAGAAAGUCUGUAGUCAUUUUAAGGGUA", "note": "[U37C U38C A56C U57A A126G]", "self-cleavage": 0.35}
{"variant": "GUUAACGGUCAUAGGCCAUGGAAACUAGGAGCACCACUUCGCUGCCAGCGAAGAAAUGAACAAAGAAAAUCUGGGCCAGGCAGGCAUCAAAAGAAAUAGUCUUGCGCUCAACCAGAAAGUCUGUAAUCGUUUUAAGGGUA", "note": "[U37C U49C A129G]", "self-cleavage": 0.78}
{"variant": "GUUAACGGUCAUAGGCCAUGGAAACUAGGAGCACCACAUCGCUGCCAGUGAAGAAACGAACAAAGAAAAUCUGGGCCAGGCAGGCCCCAAAAGGAAUAGUCUUGCGCUCAACCAGAAAGUCUGUAAUCAUUUUAAGGGUA", "note": "[U37C U38A U57C A86C U87C A94G]", "self-cleavage": 0.58}
{"variant": "GUUAACGGUCAUAGGCCAUGGAAACUAGGAGCACCACUUCGCCGCCAGUGAAGAAAUGAACAAAGAAAAUCUGGGCCAGGCAGGCAUCAAAAGAAAUAGUCUUGCGCUCAACCAGAAAGUCUGUAACCAUUUUAAGGGUA", "note": "[U37C U43C U127C]", "self-cleavage": 0.84}
{"variant": "GUUAACGGUCAUAGGCCAUGGAAACUAGGAGCACCACUUCGCAGCCAGUGAAGAAAUGAACAAAGAAAAUCAGGGCCAGGCAGGCAACAAAGGAAAUAGUCUUGCGCUCAACCAGAAAGUCUGUAAUCAUUUUAAGGGUA", "note": "[U37C U43A U72A U87A A92G]", "self-cleavage": 0.14}
{"variant": "GUUAACGGUCAUAGGCCAUGGAAACUAGGAGCACCACUUCGCCGCCAGUGAAGAAAUGAACAAAGAAAAUCUGGGCCAGGCAGGCAUCAAAAGAAAUAGUCUUGCGCUCAACCAGAAAGUCUGUAAUCAUUUUAUGGGUA", "note": "[U37C U43C A135U]", "self-cleavage": 1.52}
{"variant": "GUUAACGGUCAUAGGCCAUGGAAACUAGGAGCACCACUUCGCUGCCAGCGAAGAAAUGAACAAAGAAAAUCUGGGCCAGGCAGGCAACAAAAGAAAUAGUCUUGCGCUCAACCAGAAAGUCUGUAAUCAUUUUAAGGGUA", "note": "[U37C U49C U87A]", "self-cleavage": 1.29}
{"variant": "GUUAACGGUCAUAGGCCAUGGAAACUAGGAGCACCACUUCGCAGCCAGUGAAGAAAUGAACAAAGAAAACCUGGGCCAGGCAGGCAUCAAAAGAAUUAGUCUUGCGCUCAACCAGAAAGUCUGUAAUCAUUUUAAGGGUA", "note": "[U37C U43A U70C A96U]", "self-cleavage": 2.32}
{"variant": "GUUAACGGUCAUAGGCCAUGGAAACUAGGAGCACCACUUCGCUGCCAGAGAAGAAAUGAACAUAGAAAAUCUGGGCCAGGCAGGCAUCAAAAGAAAUAGUCUUGCGCUCAACCAGAAAGUCUGUAAUCAUUUUAAGGGUA", "note": "[U37C U49A A63U]", "self-cleavage": 1.17}
{"variant": "GUUAACGGUCAUAGGCCAUGGAAACUAGGAGCACCACUCCGCUGCCAGUGAAGAAAUGAACAAAGAAAAUCUGGGCCAGGCAGGCAUCAAAAGAAACAGUCUUGCGCUCAACCAGAAAGUCUGUAAUCGUUUUAAGGGUA", "note": "[U37C U39C U97C A129G]", "self-cleavage": 0.8}
{"variant": "GUUAACGGUCAUAGGCCAUGGAAACUAGGAGCACCACUUCGCUGCCAGCGAAGAAAUGAACAAAGAAAUUCUGGGCCGGGCAGGCAUCAAAAGAAAUAGUCUUGCGCUCAACCAGAAAGUCUGUAAUCAUUUUAAGGGUA", "note": "[U37C U49C A69U A78G]", "self-cleavage": 0.22}
{"variant": "GUUAACGGUCAUAGGCCAUGGAAACUAGGAGCACCACUUCGCUGCCAGUUAAGAAAUGAUCAAAGGAAAUCUGGGCCAGGCAGGCAUUAGAAGAAAUAAUCUUGCGCACAACCAGAAAGUCUGUAAUCAUUUUAAGGGUA", "note": "[U37C G50U A60U A66G C88U A90G G99A U108A]", "self-cleavage": 0.03}
{"variant": "GUUAACGGUCAUAGGCCAUGGAAACUAGGAGCACCACCUCGCUGCCAGUGAAGAAACGAACAAAGAAAAUCUGGGCCAGGCAGGCAUCAAAAGAAAUAGUCUUGCGCUCAACCAGAAAGUCUGUAAUCAUUUUAAGGGUA", "note": "[U37C U38C U57C]", "self-cleavage": 1.05}
{"variant": "GUUAACGGUCAUAGGCCAUGGAAACUAGGAGCACCACGUCGCUGCCAGUGAAGAAAUGAACAAAGAAAAUCUGGGCCAGGCAGGCAUCAAAAGAAAUAGUCUUGCGCUCGACCAGAAAGCCUGUAAUCAUUUUAAGGGUA", "note": "[U37C U38G A110G U120C]", "self-cleavage": 0.12}
{"variant": "GUUAACGGUCAUAGGCCAUGGAAACUAGGAGCACCACUUCGCAGCCAGUGAGGAAAUGAACAGAGAAAAUCUGGGCCAGGCAGGCAUCAAAAGAAAUAGUCUUGCGCUCAACCAGAAAGUCUGUAAUCAUUUUAAGGGUA", "note": "[U37C U43A A52G A63G]", "self-cleavage": 1.26}
{"variant": "GUUAACGGUCAUAGGCCAUGGAAACUAGGAGCACCACUUCGCUGCCAGUGAAGAAAUGAACAAAGAAAAUCUGGGCCAGGCAGGCAUCAAAAGAAAUAGUCUUGCGCUCAACCAGAAAGUCUGUGGUCAUUCUAAGGGUA", "note": "[U37C A125G A126G U132C]", "self-cleavage": 0.96}
{"variant": "GUUAACGGUCAUAGGCCAUGGAAACUAGGAGCACCACUCCGCUGCCAGUGAAGAAAUGAACAGAGAAAAUCUGGGCCAGGCAGGCACCAAAAGAAAUAGUCUUGCGCUCAACCAGAAAGUCUGUAAUCAUUUUAAGGGUA", "note": "[U37C U39C A63G U87C]", "self-cleavage": 0.48}
{"variant": "GUUAACGGUCAUAGGCCAUGGAAACUAGGAGCACCACUUCGCUGCCAGUGAAGAAAUGAACAAAGAAAAUCUGGGCCAGGCAGGCAUCAAAAGAAAUAGUCUUGCGCUCAACCAGAAGGUCUGUAAUCAUUUCAAGGGUA", "note": "[U37C A118G U133C]", "self-cleavage": 0.79}
